Test results taken from PubChem BioAssay AID445 (National Center for Advancing Translational Sciences (NCATS), 2006).
The whole screen tested about 110,000 compounds, of which about 40 (0.04%) were called active. The inconclusive results got no clear call from the source; some entries with a clear call stand among them for comparison. Calls come from the whole dose curve; as a rule, active = well fitted curve in the direction sought with a large enough effect in the signal ratio (not every such curve was filed as active); inconclusive = small, poorly fitted or top-dose-only effect, or a change in a side signal; inactive = flat fitted curve, though single readings scatter; the % refers to the signal ratio. Where the call is inconclusive, the potency comes from a doubtful curve fit.
Potency is the fitted concentration of half-maximal effect.

Test: IkB Signaling;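 for IkBa stabilization activation: 0% = basal untreated cells and 100% = reference inhibitor full response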
Settings: ABC-DLBCL IkBa-CBG/CBR dual luciferase ratio (green luciferase fused to IkBa over red control in OCI-Ly3 lymphoma cells), 4 h; IkBa stabilization activation: at 57.1 µM (top of the series), scaled: untreated 0%, proteasome inhibitor 100% unless noted
Method in brief: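 In this assay, an IκBα–CBG68 fusion accumulates when IKK-driven degradation is blocked; native CBR normalizes for cell number. OCI-Ly3 cells were treated 4 h with compound and doxycycline, then green and red light read after Chroma-Glo addition.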
With CC(=O)N1CCCc2cc(S(=O)(=O)N3CCCC(C(=O)Nc4ccc(C)c(C)c4)C3)ccc21 (stereo not given) the IkBa stabilization activation was inconclusive: 2.16% [signal inhibitor].
For COc1cccc(-c2cnc(NCc3ccccc3Cl)n2C)c1, the IkBa stabilization activation was inconclusive: 6.06% [signal inhibitor].
With Cc1ccc(C(=O)Nc2ccc3oc(-c4cccnc4)nc3c2)c(Cl)c1 the IkBa stabilization activation was inconclusive: 3.38% [signal inhibitor].
With Cc1ccc(C)c(N2CCN(C(=O)c3cc4c(=O)n(Cc5cccs5)ccc4nc3C)CC2)c1 the IkBa stabilization activation was inconclusive: 3% [signal inhibitor].
With COc1ccc(CNc2nc(-c3cccnc3)nc3ccccc23)c(OC)c1 the IkBa stabilization activation was inactive: -1.05% [at 11.4 µM, scaled: untreated 0%, proteasome inhibitor 100%].
With COc1ccc(-c2ccc(=O)n(Cc3cc(=O)n4ccccc4n3)n2)cc1 the IkBa stabilization activation was “inactive”.
With CCOC(=O)CN(C(=O)CSc1nnc2c(n1)[nH]c1ccc(OC)cc12)c1ccc(F)cc1 the IkBa stabilization activation was inconclusive: 5.57% [signal inhibitor].
For CCOc1ccccc1NC(=O)N1CCN(S(=O)(=O)c2ccc3c(ccn3C)c2)CC1, the IkBa stabilization activation was inconclusive: 2.44% [signal inhibitor].
In the case of CCN(c1ccc(C)cc1)S(=O)(=O)c1nnc(NC(=O)c2cccs2)s1, the IkBa stabilization activation is reported as inconclusive: -2.08% [signal inhibitor].
For Cc1ccc(-c2ccc(CCC(=O)O)n2-c2ccc(C(C)C)cc2)cc1, the IkBa stabilization activation was inconclusive: 8.23% [signal inhibitor].
For COc1ccccc1CNC(=O)Cn1ncc2c(C)n(Cc3ccccc3Cl)c(C)c2c1=O, the IkBa stabilization activation was inconclusive: 3.35% [signal inhibitor].
With COC(=O)c1ccc(OCC(=O)c2ccc(O)cc2O)cc1 the IkBa stabilization activation was inconclusive: 3.68% [signal inhibitor].
In the case of Cc1nnc(SCc2ccccc2)n1N, the IkBa stabilization activation is reported as inconclusive: -1.29% [signal activator].
In the case of CCN(CC)CCNC(=O)c1cc2c(=O)[nH]c3ccc(C)cc3c2s1, the IkBa stabilization activation is reported as “inactive”.
In the case of O=C(/C=C/c1ccccc1)N1CCN(Cc2cc(=O)n3nc(-c4ccccc4)sc3n2)CC1, the IkBa stabilization activation is reported as “inactive”.
In the case of O=C(c1ccco1)N1CCC2(CCCN(C(c3ccccc3)c3ccccc3)C2)CC1, the IkBa stabilization activation is reported as inactive: 0.929% [at 11.4 µM, scaled: untreated 0%, proteasome inhibitor 100%].
For CCC(=O)N1CCc2cc(S(=O)(=O)N(C)c3cccc(C)c3)ccc21, the IkBa stabilization activation was “inactive”.
For COc1ccccc1NC(=O)Cn1cnc2c(cnn2-c2ccc(C)c(C)c2)c1=O, the IkBa stabilization activation was inconclusive: 8.64% [signal inhibitor].
For COC(=O)c1cc2c(s1)-c1ccccc1OC2, the IkBa stabilization activation was “inactive”.
For CCOc1ccccc1N1CC(c2nc3ccccc3n2CCOc2ccc(C(C)(C)C)cc2)CC1=O (stereo not given), the IkBa stabilization activation was “inactive”.
With CCN(c1cc(C)cc(C)c1)S(=O)(=O)c1nnc(NC(=O)c2cccc(F)c2)s1 the IkBa stabilization activation was inconclusive: 2.49% [signal inhibitor].
In the case of COc1ccc(-c2csc(-c3nc(-c4ccc(Br)s4)cs3)n2)cc1F, the IkBa stabilization activation is reported as “inactive”.
In the case of CCc1ccc2c(c1)C(NC(C)=O)C(=O)N2CC (stereo not given), the IkBa stabilization activation is reported as inconclusive: 0.895% [signal activator].
With CCCC1=Nc2cc(C(=O)NCCc3ccc(OCC)cc3)ccc2Sc2ccccc21 the IkBa stabilization activation was inconclusive: 6.14% [signal inhibitor].
In the case of COc1cc2c(-c3ccccc3O)nc3c(c(C)nn3-c3ccccc3)c2cc1OC, the IkBa stabilization activation is reported as inconclusive: 7.63% [signal inhibitor].
In the case of COCCn1c(=O)c(C)nc2cnc(Nc3cccc(OC)c3)nc21, the IkBa stabilization activation is reported as inactive: 2.35% [at 11.4 µM, scaled: untreated 0%, proteasome inhibitor 100%].
With CC1Cc2nc(SCC(=O)Nc3nccs3)n(Cc3ccccc3)c(=O)c2S1 (stereo not given) the IkBa stabilization activation was “inactive”.
In the case of CC(=O)Oc1cc(C(F)(F)F)ccc1C(=O)O, the IkBa stabilization activation is reported as “inactive”.
In the case of COC(=O)c1cc2c(=O)n3ccccc3nc2n(C(C)C)c1=N, the IkBa stabilization activation is reported as “inactive”.
With Cc1nc2sc(C(c3cccs3)N3CC(C)CC(C)C3)c(O)n2n1 (stereo not given) the Potency was inconclusive: 3.16 µM [rising, partial curve].
With Cc1c(Cl)cccc1NC(=O)C1CCCN(c2nnc(-n3c(C)ccc3C)s2)C1 (stereo not given) the IkBa stabilization activation was “inactive”.
For CCN(CCCNC(=O)c1ccc(Sc2ccc(F)cc2)c(NC(C)=O)c1)c1ccccc1, the IkBa stabilization activation was inconclusive: 1.2% [signal inhibitor].
For COc1ccc(CNC(=O)Cn2c(=O)nc(-c3ccccc3F)c3cc(Cl)ccc32)cc1, the IkBa stabilization activation was inconclusive: 3.42% [signal inhibitor].
For CCN(CC)C(=O)CSc1nc2cc3c(cc2c(=O)n1CCCCCC(=O)NCc1ccc(OC)cc1)OCO3, the IkBa stabilization activation was inconclusive: 1.34% [signal inhibitor].
With N#Cc1c(NC(=O)Cn2c(=O)oc3ccccc32)oc(-c2ccccc2)c1-c1ccccc1 the Potency was inconclusive: 12.6 µM [signal inhibitor, partial curve].
In the case of Cc1ccc(-c2nc3c(C)cccn3c2Nc2ccccc2C)s1, the IkBa stabilization activation is reported as inconclusive: 1.08% [signal inhibitor].
For Cc1ccc(F)cc1NC(=O)Cn1c(=O)nc(-c2ccccc2F)c2cc(Cl)ccc21, the IkBa stabilization activation was inconclusive: 0.246% [signal inhibitor].
For O=c1oc2ccccc2cc1-c1cn2cccnc2n1, the IkBa stabilization activation was inconclusive: 9.32% [signal inhibitor].
For CC1CCCN(c2nc3c(S(=O)(=O)c4ccc(C(C)C)cc4)nnn3c3ccsc23)C1 (stereo not given), the IkBa stabilization activation was inconclusive: 3.74% [signal inhibitor].
In the case of C[C@@H](C(=O)O)/C(=C/c1ccc2c(c1)OCO2)C(=O)O, the IkBa stabilization activation is reported as inactive: 0.223% [at 11.4 µM, scaled: untreated 0%, proteasome inhibitor 100%].
With CN(C)c1nc(-c2ccc3c(c2)OCO3)nc2ccccc12 the IkBa stabilization activation was inactive: -3.83% [at 11.4 µM, scaled: untreated 0%, proteasome inhibitor 100%].
With CCCCCn1c(=O)[nH]c2cc(C(=O)N3CCN(c4cc(Cl)ccc4C)CC3)ccc2c1=O the IkBa stabilization activation was inconclusive: 0.299% [signal inhibitor].
With CCOC(=O)N1CCC(NC(=O)c2ccc3c(c2)N(Cc2cc(C)ccc2C)C(=O)c2ccccc2S3(=O)=O)CC1 the IkBa stabilization activation was “inactive”.
For Cc1ccc(C(=O)OCc2cc(=O)n3nc(-c4cccs4)sc3n2)cc1, the IkBa stabilization activation was inconclusive: 1.22% [signal inhibitor].
For CCOC(=O)c1c(C)n(OCc2ccccc2)c2ccc3nonc3c12, the IkBa stabilization activation was “inactive”.
With COc1ccccc1NC(=O)Cn1c(=O)n(Cc2cccs2)c(=O)c2cccnc21 the IkBa stabilization activation was inconclusive: 8.01% [signal inhibitor].
For O=C(Cn1cc(SCc2ccccc2F)c2ccccc21)N1CCCCCC1, the IkBa stabilization activation was “inactive”.
With CCN(CC)c1ccc2cc(-c3nc(-c4ccc(Cl)cc4Cl)cs3)c(=O)oc2c1 the IkBa stabilization activation was “inactive”.
In the case of O=C(Nc1nccs1)Oc1ccccc1, the IkBa stabilization activation is reported as “inactive”.
For CCOC(=O)c1ccc(Nc2nc3nonc3nc2Nc2cccc(C)c2C)cc1, the IkBa stabilization activation was inconclusive: -4.26% [signal inhibitor].
In the case of Cc1nc(-c2ccccc2)sc1-c1ccc(SCC(=O)NCc2ccccc2)nn1, the IkBa stabilization activation is reported as “inactive”.
With COCCn1nnnc1C(c1cc2ccc(C)cc2[nH]c1=O)N(Cc1ccco1)Cc1cccs1 (stereo not given) the IkBa stabilization activation was inconclusive: 4.23% [signal inhibitor].
With Cc1cccc(NC(=O)Cn2cc(C(=O)C3CCCCC3)c3ccccc32)c1C the IkBa stabilization activation was inconclusive: 10.2% [signal inhibitor].
With CCOC(=O)N1CCN(C(=O)c2ccc(CS(=O)(=O)c3ccccc3OC)o2)CC1 the IkBa stabilization activation was “inactive”.
For CCCCCCCC/C=C\CCCCCCCC(=O)NCc1ccc(O)c(OC)c1, the IkBa stabilization activation was “inactive”.
With COc1ccc(C(=O)N2CCC[C@@]3(CCN(Cc4nccs4)C3)C2)cc1 the IkBa stabilization activation was inactive: 0.4% [at 11.4 µM, scaled: untreated 0%, proteasome inhibitor 100%].
For COC(=O)C(C)Sc1nc2c(c(=O)[nH]c(=O)n2C)n1CCC(C)C (stereo not given), the IkBa stabilization activation was “inactive”.
In the case of CCCc1nn2c(=O)cc(COC(=O)c3cccs3)nc2s1, the IkBa stabilization activation is reported as “inactive”.
In the case of CCOc1ccc(C(=O)c2cn(CC(=O)Nc3ccc4c(c3)OCCO4)c3ccc(OC)cc3c2=O)cc1, the IkBa stabilization activation is reported as inconclusive: -0.886% [signal inhibitor].
In the case of O=C(NCc1ccccc1)c1cc2sccc2n1Cc1ccc(F)cc1, the IkBa stabilization activation is reported as inconclusive: -0.464% [signal inhibitor].
In the case of Cc1ccc(C)c(NC(=O)c2nc(S(C)(=O)=O)ncc2N(Cc2ccc(C(C)(C)C)cc2)Cc2ccco2)c1, the IkBa stabilization activation is reported as inconclusive: 1.53% [signal inhibitor].
With O=C(c1cc2nc(-c3ccco3)cc(C(F)(F)F)n2n1)N1CCN(c2ccccn2)CC1 the IkBa stabilization activation was “inactive”.
In the case of COc1cc(C2C(C#N)=C(N)Oc3cc(N(C)C)ccc32)cc2c1OCO2 (stereo not given), the IkBa stabilization activation is reported as inconclusive: 2.13% [signal activator].
For Cn1c(=O)c(C(=O)CN2CCCc3ccccc32)c(N)n(Cc2ccccc2)c1=O, the IkBa stabilization activation was inconclusive: 2.99% [signal inhibitor].
With COC(=O)C1=C(C)N(CCC2=CCCCC2)C(=O)C1 the Potency was inconclusive: 39.8 µM [rising, single point].
With O=C(NC1CCCCC1)/C(=C/c1ccc(Cl)cc1)NC(=O)c1ccccc1 the IkBa stabilization activation was inconclusive: 8.52% [signal inhibitor].
With Cc1ccc(NC(CNS(=O)(=O)c2ccc(Cl)cc2)c2ccccc2)cc1 (stereo not given) the IkBa stabilization activation was “inactive”.
For N#Cc1c(NC(=O)CSc2ncnc3sccc23)oc(-c2ccco2)c1-c1ccco1, the IkBa stabilization activation was inconclusive: 3.89% [signal inhibitor].
With COC(=O)Cc1nc2ccccc2[nH]1 the IkBa stabilization activation was inconclusive: 13.8% [signal inhibitor].
For Cc1c(C)c2c(c(C)c1O)CC[C@@](C)(CCC[C@@H](C)CCC[C@@H](C)CCCC(C)C)O2, the IkBa stabilization activation was “inactive”.
